Data reported in a compilation of properties of binary mixtures (doi:10.1021/jp510884t).
The densities may have been worked out from excess volumes.

Assay: xn = mol fraction of the nth substance listed
Conditions: 101 kPa

ClCCCCCl + CCCC[n+]1cccc(C)c1.F[B-](F)(F)F
Conditions | mass density [kg/m3]
298.15 K, x1 = 0.1041 | 1181
298.15 K, x1 = 0.196 | 1179
298.15 K, x1 = 0.3006 | 1176.3
298.15 K, x1 = 0.4043 | 1173.2
298.15 K, x1 = 0.5001 | 1169.8
298.15 K, x1 = 0.6067 | 1165.2
298.15 K, x1 = 1 | 1133.2
318.15 K, x1 = 0.1034 | 1166.9
318.15 K, x1 = 0.1945 | 1164.6
318.15 K, x1 = 0.3033 | 1161.6
318.15 K, x1 = 0.4115 | 1157.8
318.15 K, x1 = 0.5025 | 1154
318.15 K, x1 = 0.6685 | 1144.9

ClCCCCl + CCCC[n+]1ccccc1C.F[B-](F)(F)F
x1 = 1
Conditions | mass density [kg/m3]
298.15 K | 1180.1
318.15 K | 1155

ClCCCl + CCCC[n+]1ccc(C)cc1.F[B-](F)(F)F
x1 = 1
Conditions | mass density [kg/m3]
298.15 K | 1245.4
318.15 K | 1216.2

CCCC[n+]1cccc(C)c1.F[B-](F)(F)F + ClCCl
298.15 K
Conditions | mass density [kg/m3]
x1 = 0.0181 | 1313.6
x2 = 0 | 1183.2
x2 = 0.1405 | 1191.5
x2 = 0.2096 | 1196.1
x2 = 0.285 | 1201.8
x2 = 0.327 | 1205.5
x2 = 0.4127 | 1213.6
x2 = 0.502 | 1223.6
x2 = 0.6059 | 1237
x2 = 0.702 | 1252.7
x2 = 0.7772 | 1266.9
x2 = 0.8168 | 1275.1
x2 = 0.8493 | 1282.4
x2 = 0.8816 | 1290.3
x2 = 0.9052 | 1295.9
x2 = 0.9395 | 1304.1
x2 = 0.9628 | 1309.5

CCCC[n+]1ccc(C)cc1.F[B-](F)(F)F + ClCCCl
Conditions | mass density [kg/m3]
298.15 K, x2 = 0.1992 | 1190
298.15 K, x2 = 0.3028 | 1194.6
298.15 K, x2 = 0.4492 | 1202.5
298.15 K, x2 = 0.5132 | 1206.5
298.15 K, x2 = 0.642 | 1216.2
298.15 K, x2 = 0.6913 | 1220.3
298.15 K, x2 = 0.7412 | 1224.9
298.15 K, x2 = 0.7845 | 1228.9
298.15 K, x2 = 0.826 | 1233
298.15 K, x2 = 0.8579 | 1236.3
298.15 K, x2 = 0.8921 | 1239.4
298.15 K, x2 = 0.9228 | 1242.5
298.15 K, x2 = 0.9504 | 1244.7
318.15 K, x2 = 0 | 1169.3
318.15 K, x2 = 0.2081 | 1176
318.15 K, x2 = 0.292 | 1179.3
318.15 K, x2 = 0.3709 | 1182.6
318.15 K, x2 = 0.4395 | 1186.1
318.15 K, x2 = 0.5069 | 1189.7
318.15 K, x2 = 0.5799 | 1194.2
318.15 K, x2 = 0.6337 | 1197.6
318.15 K, x2 = 0.6867 | 1201.4
318.15 K, x2 = 0.7357 | 1204.9
318.15 K, x2 = 0.7787 | 1208.1
318.15 K, x2 = 0.8648 | 1214.4
318.15 K, x2 = 0.8799 | 1215.3
318.15 K, x2 = 0.9241 | 1217.7
318.15 K, x2 = 0.9545 | 1218.6
318.15 K, x2 = 0.9775 | 1218.4

ClCCl + CCCC[n+]1ccccc1C.F[B-](F)(F)F
Conditions | mass density [kg/m3]
298.15 K, x1 = 1 | 1316.2

ClCCCl + CCCC[n+]1cccc(C)c1.F[B-](F)(F)F
x1 = 1
Conditions | mass density [kg/m3]
298.15 K | 1245.4
318.15 K | 1216.2

ClCCl + CCCC[n+]1ccc(C)cc1.F[B-](F)(F)F
Conditions | mass density [kg/m3]
298.15 K, x1 = 1 | 1316.2

CCCC[n+]1ccc(C)cc1.F[B-](F)(F)F + ClCCCCl
x2 = 0
Conditions | mass density [kg/m3]
298.15 K | 1183.1
318.15 K | 1169.3

ClCCCl + CCCC[n+]1ccccc1C.F[B-](F)(F)F
x1 = 1
Conditions | mass density [kg/m3]
298.15 K | 1245.4
318.15 K | 1216.2

CCCC[n+]1ccccc1C.F[B-](F)(F)F + ClCCCCCl
mass density [kg/m3]
Conditions | x2 = 0 | x2 = 0.1059 | x2 = 0.1102 | x2 = 0.2048 | x2 = 0.3085 | x2 = 0.4073 | x2 = 0.5173 | x2 = 0.5927 | x2 = 0.6068
298.15 K | 1201.7 | 1198.8 | – | 1195.7 | 1191.9 | 1187.6 | – | 1176.7 | –
318.15 K | – | – | 1184.7 | – | – | – | 1165.8 | – | 1159.4

ClCCCCCl + CCCC[n+]1ccc(C)cc1.F[B-](F)(F)F
mass density [kg/m3]
Conditions | 298.15 K | 318.15 K
x1 = 0.1056 | – | 1166.5
x1 = 0.1914 | 1178.5 | –
x1 = 0.1956 | – | 1164.2
x1 = 0.3009 | – | 1161
x1 = 0.3161 | 1175.2 | –
x1 = 0.3978 | – | 1157.4
x1 = 0.4114 | 1172.2 | –
x1 = 0.5017 | – | 1153.2
x1 = 0.5022 | 1168.7 | –
x1 = 0.6171 | – | 1147.2
x1 = 0.6684 | – | 1144.2
x1 = 0.7229 | – | 1140.6
x1 = 1 | 1133.2 | 1111.2

CCCC[n+]1ccccc1C.F[B-](F)(F)F + ClCCCl
mass density [kg/m3]
Conditions | 298.15 K | 318.15 K
x2 = 0 | 1201.7 | 1188.3
x2 = 0.1068 | – | 1191.1
x2 = 0.1113 | 1205 | –
x2 = 0.1687 | – | 1193
x2 = 0.1822 | 1207.5 | –
x2 = 0.2072 | – | 1194.3
x2 = 0.2675 | 1210.8 | –
x2 = 0.2808 | – | 1196.7
x2 = 0.3097 | – | 1197.8
x2 = 0.377 | 1215.6 | –
x2 = 0.4017 | – | 1201.1
x2 = 0.4688 | 1220.1 | –
x2 = 0.5102 | – | 1205.7
x2 = 0.5619 | 1225.1 | –
x2 = 0.6124 | – | 1210.4
x2 = 0.6751 | 1231.8 | –
x2 = 0.7057 | – | 1214.7
x2 = 0.778 | 1238.7 | –
x2 = 0.8054 | – | 1219.3
x2 = 0.8606 | – | 1220.7
x2 = 0.8818 | 1245.5 | –
x2 = 0.9043 | – | 1222
x2 = 0.9075 | 1246.7 | –
x2 = 0.9231 | – | 1222.2
x2 = 0.942 | 1247.9 | –
x2 = 0.9634 | 1248.1 | –

CCCC[n+]1cccc(C)c1.F[B-](F)(F)F + ClCCCCCl
Conditions | mass density [kg/m3]
318.15 K, x2 = 0 | 1169.4

ClCCCCCl + CCCC[n+]1ccccc1C.F[B-](F)(F)F
Conditions | mass density [kg/m3]
298.15 K, x1 = 1 | 1133.2

CCCC[n+]1ccc(C)cc1.F[B-](F)(F)F + ClCCl
298.15 K
Conditions | mass density [kg/m3]
x1 = 0.0164 | 1313.8
x2 = 0 | 1183.1
x2 = 0.0927 | 1188.3
x2 = 0.2085 | 1195.7
x2 = 0.2914 | 1201.9
x2 = 0.3995 | 1211.5
x2 = 0.4917 | 1221.4
x2 = 0.6312 | 1240.1
x2 = 0.774 | 1265.4
x2 = 0.8127 | 1273.4
x2 = 0.84 | 1279.6
x2 = 0.8969 | 1293.3
x2 = 0.94 | 1304
x2 = 0.9582 | 1308.3

CCCC[n+]1ccc(C)cc1.F[B-](F)(F)F + ClCCCCCl
x2 = 0
Conditions | mass density [kg/m3]
298.15 K | 1183.1
318.15 K | 1169.3

CCCC[n+]1ccccc1C.F[B-](F)(F)F + ClCCl
298.15 K
Conditions | mass density [kg/m3]
x2 = 0 | 1201.7
x2 = 0.0314 | 1203.6
x2 = 0.1097 | 1207.8
x2 = 0.162 | 1210.8
x2 = 0.2062 | 1214.1
x2 = 0.349 | 1224.9
x2 = 0.3949 | 1229.1
x2 = 0.4647 | 1235.6
x2 = 0.5209 | 1241.8
x2 = 0.5872 | 1249.6
x2 = 0.6304 | 1255.3
x2 = 0.8222 | 1285.6
x2 = 0.8767 | 1296.3
x2 = 0.8816 | 1297
x2 = 0.9332 | 1307.6
x2 = 0.9429 | 1308.9

ClCCl + CCCC[n+]1cccc(C)c1.F[B-](F)(F)F
Conditions | mass density [kg/m3]
298.15 K, x1 = 1 | 1316.2

CCCC[n+]1ccccc1C.F[B-](F)(F)F + ClCCCCl
Conditions | mass density [kg/m3]
298.15 K, x2 = 0.1157 | 1201.5
298.15 K, x2 = 0.202 | 1201.4
298.15 K, x2 = 0.3057 | 1201
298.15 K, x2 = 0.501 | 1199.9
298.15 K, x2 = 0.6111 | 1198.6
298.15 K, x2 = 0.7037 | 1196.7
298.15 K, x2 = 0.801 | 1193.5
298.15 K, x2 = 0.9475 | 1185.8
298.15 K, x2 = 0.9715 | 1183.6
318.15 K, x2 = 0 | 1188.3
318.15 K, x2 = 0.1571 | 1187.3
318.15 K, x2 = 0.2096 | 1187.1
318.15 K, x2 = 0.2596 | 1186.7
318.15 K, x2 = 0.3112 | 1186.4
318.15 K, x2 = 0.367 | 1185.9
318.15 K, x2 = 0.5131 | 1183.8
318.15 K, x2 = 0.6075 | 1181.8
318.15 K, x2 = 0.7082 | 1178.6
318.15 K, x2 = 0.8074 | 1173.8
318.15 K, x2 = 0.8671 | 1169.7
318.15 K, x2 = 0.9046 | 1166.9
318.15 K, x2 = 0.9426 | 1163.3
318.15 K, x2 = 0.9731 | 1159.5

CCCC[n+]1cccc(C)c1.F[B-](F)(F)F + ClCCCl
mass density [kg/m3]
Conditions | 298.15 K | 318.15 K
x2 = 0 | 1183.2 | 1169.4
x2 = 0.1002 | – | 1172.6
x2 = 0.1907 | 1190.2 | –
x2 = 0.209 | – | 1176.6
x2 = 0.2999 | – | 1180.3
x2 = 0.323 | 1196.2 | –
x2 = 0.4167 | 1201.5 | –
x2 = 0.5198 | – | 1191.6
x2 = 0.6035 | – | 1196.7
x2 = 0.703 | 1222.6 | –
x2 = 0.7057 | – | 1203.6
x2 = 0.7424 | 1226 | –
x2 = 0.7856 | 1230.2 | –
x2 = 0.8182 | – | 1211.6
x2 = 0.8256 | 1234.1 | –
x2 = 0.8594 | 1237.3 | –
x2 = 0.8865 | – | 1216.4
x2 = 0.8915 | 1240.3 | –
x2 = 0.9239 | 1243.1 | –
x2 = 0.9289 | – | 1218.2
x2 = 0.9508 | – | 1218.7
x2 = 0.9773 | 1246.1 | –
x2 = 0.9777 | – | 1218.5

ClCCCCl + CCCC[n+]1ccc(C)cc1.F[B-](F)(F)F
mass density [kg/m3]
Conditions | 298.15 K | 318.15 K
x1 = 0.1183 | 1183.3 | –
x1 = 0.3869 | 1184.6 | –
x1 = 0.3919 | – | 1169.4
x1 = 0.4996 | – | 1169.4
x1 = 0.5908 | 1185.8 | –
x1 = 0.5953 | – | 1169.1
x1 = 0.6425 | 1186.1 | –
x1 = 0.699 | – | 1168.3
x1 = 0.7003 | 1186.4 | –
x1 = 0.7414 | 1186.4 | –
x1 = 0.7475 | – | 1167.6
x1 = 0.7857 | 1186.3 | –
x1 = 0.7931 | – | 1166.8
x1 = 0.835 | – | 1165.7
x1 = 0.8434 | 1185.8 | –
x1 = 0.9072 | 1184.8 | –
x1 = 0.9099 | – | 1162.7
x1 = 0.9435 | – | 1160.7
x1 = 0.9735 | – | 1158.4
x1 = 1 | 1180.1 | 1155
